Drawing on article PMC7819943, “Rice protein-binding microarrays: a tool to detect cis-acting elements near promoter regions in rice”, this text covers binding signal for 42 sequences.

The list shows a part of the results.

The target of the experiment is T1, OsWOX13 (Oryza sativa, UniProt Q5QMM3 1-267).
T1 sequence: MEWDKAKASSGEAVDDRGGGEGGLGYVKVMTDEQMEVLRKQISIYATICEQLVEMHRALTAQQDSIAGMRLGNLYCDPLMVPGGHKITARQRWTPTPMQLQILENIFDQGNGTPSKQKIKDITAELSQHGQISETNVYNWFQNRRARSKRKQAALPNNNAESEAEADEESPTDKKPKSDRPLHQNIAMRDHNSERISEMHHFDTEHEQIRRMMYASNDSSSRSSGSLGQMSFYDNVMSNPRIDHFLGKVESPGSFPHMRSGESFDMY
Nature of the experiment: protein-binding microarray (RPBM); PBS, 2% BSA, 51.3 ng/ul salmon testes DNA, 50 uM zinc acetate, 200 nM TF, 25 C, 1 h; high values mean tight binding. To be noted: protein: recombinant; tags: N-terminal polyhistidine and DsRed monomer fusion (pET32a); label: CyDye5-dUTP incorporated in the synthesized complementary strand; 3' TTTTT single-stranded linker to array surface; dsDNA, one strand shown. The essentials: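 Per-feature fluorescence intensity (arbitrary units), read on an Axon 4000B scanner, is the binding signal. Transcription factors carrying an N-terminal polyhistidine tag and DsRed fusion were expressed in E. coli BL21-CodonPlus and purified on Ni–NTA. A custom Agilent array, made double-stranded by primer extension with Cy5-dUTP and blocked with 2% BSA, was incubated with 200 nM protein in PBS, 2% BSA, salmon testes DNA and 50 µM zinc acetate at 25 °C for 1 h and then washed.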
Consider “TTTGACTGAGGGAGTATATGCATATATATTGGTTATCGGCCGGAGTCACCTAGTGCAG”, for which the binding signal was 11900 fluorescence intensity (a.u.).

On to “TGTGATTGCAGCATAAACCCTGGGAACGTCCGCTGGGGCTCGGAGTCACCTAGTGCAG”, for which the binding signal was 34900 fluorescence intensity (a.u.).

For the sequence “ATTCCTGATTAATCTCCGCAATTCCATCCCGCCGATTCATCGGAGTCACCTAGTGCAG”, the binding signal is 19700 fluorescence intensity (a.u.).

As to “TTGCTTGTTTGTGACAGACAGATTGATGTGGAAGAGTAGTCGGAGTCACCTAGTGCAG”, the binding signal was 16300 fluorescence intensity (a.u.).

“TTGTAATGACAATCACGAGAGAAGAAGCGGAGAGCAAGGACGGAGTCACCTAGTGCAG”: the binding signal is 13600 fluorescence intensity (a.u.).

As for “AATAAGACTCCAATCACGTGCAACCGAGATCAGGATACTTCGGAGTCACCTAGTGCAG”, the binding signal is 6150 fluorescence intensity (a.u.).

Take “TGAAATTACCTGATGGCACAACACTTCTATTTTGTTGCCTCGGAGTCACCTAGTGCAG”: the binding signal was 10300 fluorescence intensity (a.u.).

Take “GAAAATAATTAAGACAGTATATATTACACCTATTTGTGAACGGAGTCACCTAGTGCAG”: the binding signal was 5540 fluorescence intensity (a.u.).

On to “ATAATCACACTCAATCTCAGGTTCTTGCTCCACGTACTCCCGGAGTCACCTAGTGCAG”, for which the binding signal is 3520 fluorescence intensity (a.u.).

With “GATATTGACAGGCAAATACGGAGTAGCTTTCAAAATTTTGCGGAGTCACCTAGTGCAG”, the binding signal was 13000 fluorescence intensity (a.u.).

Turning to “ACAGTAATTTCCTACCAAATTGTAATGTTACTTAGCCAGTCGGAGTCACCTAGTGCAG”, the binding signal is 21000 fluorescence intensity (a.u.).

Turning to “ATTAATGGGCCTGATTTGAATAGTACGTAGTATTTCTGATCGGAGTCACCTAGTGCAG”, the binding signal is 18500 fluorescence intensity (a.u.).

As to “ACTGCTAATGAAGAATTGAAGATCAATGCGAATTCTGCTGCGGAGTCACCTAGTGCAG”, the binding signal is 5170 fluorescence intensity (a.u.).

As for “TCCTCCTTGACAACCGCTTGACAGTGAATGGGTTCACCTCCGGAGTCACCTAGTGCAG”, the binding signal was 3240 fluorescence intensity (a.u.).

In the case of “ATGCTTGATTTGAAGACATAGGGTTATCGAAATAGGTTTCCGGAGTCACCTAGTGCAG”, the binding signal is 18000 fluorescence intensity (a.u.).

In the case of “TCCTGTTAATTAATTTCTCAAGATTAGTAGTAAAAGGGTACGGAGTCACCTAGTGCAG”, the binding signal was 20700 fluorescence intensity (a.u.).

Take “TGATGACCAATCATTTGTTGAGGAGGATTCTTACATATCTCGGAGTCACCTAGTGCAG”: the binding signal is 7020 fluorescence intensity (a.u.).

For “TAATTTAATTGGTTTAAAGGTGTGTATATATTTATATCCGCGGAGTCACCTAGTGCAG”, the binding signal is 26800 fluorescence intensity (a.u.).

Take “ATGATTAAATAGGAGAGTGTATTCTTCCTACATCAAAATTCGGAGTCACCTAGTGCAG”: the binding signal was 7850 fluorescence intensity (a.u.).

Consider “GAATTTTAGATTGAGTTGTTTGCGGGGCTAAGTTCCCTATCGGAGTCACCTAGTGCAG”, for which the binding signal is 21100 fluorescence intensity (a.u.).

On to “GAGAGATTGGATGTGATTATACATAAGCATTAGGGCTAAACGGAGTCACCTAGTGCAG”, for which the binding signal is 36000 fluorescence intensity (a.u.).

Turning to “TATATATATATATATATATATATAGTGATGCATCTACAAACGGAGTCACCTAGTGCAG”, the binding signal is 4300 fluorescence intensity (a.u.).

Take “GGGTTAATTTGAGCACAGACTGCCCGTTACAGCTTTGTTGCGGAGTCACCTAGTGCAG”: the binding signal was 34400 fluorescence intensity (a.u.).

Turning to “CGGCGTAATTTCCACAGTAATTGTTTGGATTGCAGTAGGACGGAGTCACCTAGTGCAG”, the binding signal is 33000 fluorescence intensity (a.u.).

For the sequence “AGATGATCAATTGGGAATGAAGAGATTAAGACCATTTGATCGGAGTCACCTAGTGCAG”, the binding signal is 3610 fluorescence intensity (a.u.).

For “ATTGATTATGTGTTCTTTAATACGATTTGTGGTAATGACTCGGAGTCACCTAGTGCAG”, the binding signal is 33800 fluorescence intensity (a.u.).

For “CATATGTTTCAATCTGTTAACATTCTTGATTTCATACGTACGGAGTCACCTAGTGCAG”, the binding signal is 7150 fluorescence intensity (a.u.).

Regarding “TCTCATCCGTGACAGTTCGTAACTGTCACCCTTCATAGATCGGAGTCACCTAGTGCAG”, the binding signal was 3260 fluorescence intensity (a.u.).

Take “TAATATCTTAATTGGTATTCGTAACCGGTAGCGTTCATACCGGAGTCACCTAGTGCAG”: the binding signal was 22300 fluorescence intensity (a.u.).

On to “TTGATACTCTGATGATTGTAAAGTAAATTGTTTGAAATTTCGGAGTCACCTAGTGCAG”, for which the binding signal is 9650 fluorescence intensity (a.u.).

In the case of “CTTTTCCATACTTAAATTTAATGCTACTTATCTCACATGACGGAGTCACCTAGTGCAG”, the binding signal was 4210 fluorescence intensity (a.u.).

Consider “CTCTAATTTATCTATAATCAATGTAATAGCTAATTCATACCGGAGTCACCTAGTGCAG”, for which the binding signal was 32500 fluorescence intensity (a.u.).

In the case of “CAAAATTTGATGAATGGAAGGGTCGAAACTGAGTGATTGCCGGAGTCACCTAGTGCAG”, the binding signal is 23600 fluorescence intensity (a.u.).

As to “TAATATATGATTTACATATTGTTAAACTACATGGAATTCTCGGAGTCACCTAGTGCAG”, the binding signal is 6650 fluorescence intensity (a.u.).

For “TTTCAAATAATTATTATGTTGTAGTTTGTGAATGGGCAAACGGAGTCACCTAGTGCAG”, the binding signal was 5150 fluorescence intensity (a.u.).

Turning to “CTATATAAAACTGATTGATTCATATTACTACGACGTTTTACGGAGTCACCTAGTGCAG”, the binding signal was 6690 fluorescence intensity (a.u.).

Turning to “GATTTGTGATGATTATTCGTGATTTGCGATAAATGGTCCCCGGAGTCACCTAGTGCAG”, the binding signal is 30900 fluorescence intensity (a.u.).

Take “CTTAATTAACTCTGTCTGCAGGTCAGCGTTTACCTGCAGACGGAGTCACCTAGTGCAG”: the binding signal is 5380 fluorescence intensity (a.u.).

Take “TCATATTAATTTTAAGTGTTGATCCTATGTTAGCACTGGCCGGAGTCACCTAGTGCAG”: the binding signal is 8150 fluorescence intensity (a.u.).

Take “TCGTGGTGGTGGTGGTGGTGGAAGTTAGGGTTTGAGGGTTCGGAGTCACCTAGTGCAG”: the binding signal is 4650 fluorescence intensity (a.u.).

Turning to “AATCTCAAATTGAATCCATTTTATTTGATGACGATTTATTCGGAGTCACCTAGTGCAG”, the binding signal is 9810 fluorescence intensity (a.u.).

Turning to “TAATAGATTTAATCATGTGCTGATGACATTATTATGATTCCGGAGTCACCTAGTGCAG”, the binding signal was 19900 fluorescence intensity (a.u.).
